Screen size: about 45,000 compounds; about 200 (0.44%) were called active. Roughly 7% stayed inconclusive and do not appear here. The call rests on the fitted dose curve; in most records, active means well fitted activation curve with a large enough effect; inconclusive means small, poorly fitted or top-dose-only effect; inactive means no such curve, though single readings can be large or run the other way. The list shows a part of the results.
experiment: qHTS of TDP-43 Inhibitors: NCGC Sytravon Library Screen; conditions: yeast TDP-43 toxicity rescue, BacTiter-Glo growth, 24 h; series mostly up to 46.1 µM; growth rescue (activation): at the top concentration; further: 0% is about no effect; nearly all actives have a fitted effect of over 55% in size
Method in brief: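 TDP-43-expressing yeast, pregrown in raffinose, seeded at OD600 0.02 in galactose medium with compound for 24 hr at 30 deg C. Growth read by BacTiter-Glo luminescence, so rescue of toxicity appears as activation.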

Structure (SMILES) | growth rescue (activation)
Cc1cccnc1C(c1ccc(F)cc1)N(C)C(=O)C1CCN(CCOc2ccc(Cl)cc2Cl)CC1 (stereo not given) | inactive: -9.85%
COc1ccc(/C=N/NC(=O)CCNc2n[nH]c(=O)[nH]c2=O)c(OC)c1 | inactive: 0.0758%
CC(=O)C1=C(O)C(=O)N(c2ccc(S(=O)(=O)Nc3nccs3)cc2)C1c1ccc(F)cc1 (stereo not given) | inactive: 43.1%
N#Cc1cccc(CN2C=NS(=O)(=O)c3ccccc32)c1 | inactive: 0.0781%
COc1ccc(CNC(=O)c2cc(S(=O)(=O)N3CCCCC3)ccc2Cl)cc1OC | inactive: -0.673%
CC(C)C[C@H](NC(=O)c1ccc(OC2CCN(C(=O)C3CC3)CC2)cc1)C(N)=O | inactive: 6.51%
CCOc1ccc(NC(=O)CNC(=O)c2ccc(OC)cc2)cc1 | inactive: 5.8%
CCn1c(-c2ccccc2)c(C(=O)CC#N)c2ccccc21 | inactive: 11.1%
CC(=O)c1ccc(NC(=O)N2CCN(c3ccc(C)cc3)C(C)C2)cc1 (stereo not given) | inactive: 4.7%
Cc1ccc(S(=O)(=O)CC(=O)Nc2ccccn2)cc1 | inactive: -7.56%
O=C(COC(=O)c1ccc(Cl)nc1)Nc1ccc2ccccc2c1 | inactive: 17.8%
O=C(Cc1ccccc1)N/N=C/c1ccc(-c2ccc([N+](=O)[O-])cc2)o1 | inactive: 13%
O=C(Nc1ccccn1)c1ccc(CN(c2ccccc2)S(=O)(=O)c2ccccc2)cc1 | inactive: 8.57%
COc1ccc(NC(=O)c2ccc(C#CC(C)(C)O)cc2)cc1 | inactive: 29.5%
CCOc1ccc(C(=O)Nc2ccc(N3CCN(S(C)(=O)=O)CC3)cc2)cc1[N+](=O)[O-] | inactive: -0.458%
O=C(CCCOc1ccccc1)N1CCN(S(=O)(=O)c2ccccc2)CC1 | inactive: 24.5%
O=C(COc1ccccc1Cl)c1ccc[nH]1 | inactive: 23.6%
CCN(CC)CCOc1ccccc1OC | inactive: 13%
O=C(CN1CCN(C(=S)NC2CCCC2)CC1)Nc1ccc(Oc2ccccc2)cc1 | inactive: 16.6%
COCCCC1CCN(C(=O)C2CCC(=O)N(C3CCCCCC3)C2)CC1 (stereo not given) | inactive: -4.17%
CCCNC(=O)C1(C)CCN(CCC(=O)c2ccc(Br)cc2)C1 (stereo not given) | inactive: 0.788%
CCN(CC)CCOC(=O)c1ccccc1Br | inactive: -3.41%
O=C(CSc1nc2[nH]c(=O)cc(O)c2s1)Nc1cc(Cl)cc(Cl)c1 | inactive: 10.9%
CC(C)CCN1CN(S(=O)(=O)c2cccs2)c2nc3ccccc3nc21 | inactive: -10.1%
CCS(=O)(=O)Nc1cc(OC)c(OC)cc1Cc1nccc2cc(OC)c(OC)cc12 | inactive: -14.9%
COc1ccccc1CNS(=O)(=O)c1cc(C(=O)NCC2CCCO2)c(Cl)cc1Cl (stereo not given) | inactive: -6.34%
Cc1nnc(NC(=O)C23CC4CC(C)(CC(C)(C4)C2)C3)s1 | inactive: 10.7%
O=C(COc1cccnc1[N+](=O)[O-])NC1CCS(=O)(=O)C1 (stereo not given) | inactive: -1.84%

Structure (SMILES) | growth rescue (activation)
O=[N+]([O-])c1ccc(N/N=C\c2cccnc2)nc1 | inactive: -0.32%
COc1cc(C=O)ccc1Oc1ccc(S(=O)(=O)N2CCOCC2)cc1[N+](=O)[O-] | inactive: 8.2%
CCCS(=O)(=O)NC(=O)C1(C)CCCN(C(=O)c2c(-c3ccccc3)noc2C)C1 (stereo not given) | inactive: -3.27%
CCOc1ccc(NC(=O)NC2CCOC(C)(C)C2)cc1 (stereo not given) | inactive: 25.1%
CCOC(=O)C1(C)CCCCCN1C(=O)c1ccc(C(F)(F)F)nc1C (stereo not given) | inactive: 5.29%
COc1cccc(C(=O)NC2CCCC2)c1 | inactive: 8.82%
CCCC(=NC(C)CC)C1=C(O)CC(c2ccccc2)CC1=O (stereo not given) | inactive: -45.7%
Cc1ccc(S(=O)(=O)N2CC(C)N(S(C)(=O)=O)C2)cc1 (stereo not given) | inactive: 9.49%
CC(=O)N[C@@H](Cc1c[nH]c2ccccc12)C(=O)NC1CCCc2ccccc21 (stereo not given in full) | inactive: -4.63%
NS(=O)(=O)c1cc(C(=O)OCC(=O)Nc2ccc3c(c2)OCO3)ccc1Cl | inactive: 15.7%
CC(CCc1ccccc1)NC(=O)Cc1ccccc1 (stereo not given) | inactive: 31.5%
O=C(NNC1=NCCCCC1)c1cccc([N+](=O)[O-])c1 | inactive: -8.98%
COc1cccc(NC(=O)/C=C/c2ccc([N+](=O)[O-])cc2)c1 | inactive: 14.5%
COc1ccc(CN2C(=O)CCCc3ccccc32)cc1 | inactive: 15.7%
COC(=O)c1sccc1NC(=S)Nc1cc(OC)ccc1OC | inactive: -3.28%
CCc1ccccc1NC(=O)CCNC(=O)Cn1ccc2ccccc2c1=O | inactive: -4.9%
Cc1ccc(/C(N)=N/OC(=O)c2ccc(C)cc2Cl)cc1 | inactive: -80.2%
CC1=NN(C(=O)CCc2ccccc2)C(c2ccccc2)C1 (stereo not given) | inactive: 18%
COc1cc(NC(=O)COC(=O)/C=C/c2ccccc2Cl)cc(OC)c1 | inactive: 3.51%
CCOc1ccc(N2CC(C(=O)Nc3ccc4c(c3)OCCO4)CC2=O)cc1 (stereo not given) | inactive: 6.31%
NC(=O)COC(=O)c1cccc(S(=O)(=O)N2CCCCC2)c1 | inactive: 7.35%
CCn1c(SCC(=O)N2CCC(C)CC2)nnc1-c1ccco1 | inactive: -6.11%
O=C(O)CCc1nc2cc3ccccc3cc2[nH]1 | inactive: 1.56%
CSc1nnc(-c2ccccc2N=Cc2c(C)[nH]n(-c3ccccc3)c2=O)c(=O)[nH]1 | inactive: -14.6%
O=C(O)c1c2c(nc3ccccc13)/C(=C/c1c(F)cccc1F)CCC2 | inactive: 3.98%
CCNC(=O)NC(=O)C(C)OC(=O)c1ccc(SC)cc1OC (stereo not given) | inactive: 18.9%
O=c1[nH]c2ccc(S(=O)(=O)NCc3ccccc3)cc2[nH]1 | inactive: 6.44%

Source: PubChem BioAssay AID1347073 (National Center for Advancing Translational Sciences (NCATS), 2019)
